{"source": "the supplement of paper PMC12582362", "note": "Structures can show the parent of a compound that is named as a salt. Screen size: about 1,500 compounds; about 30 (2%) showed activity.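 Rule for the calls: active = robust z-score below -2; a few such results were not called.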 This is one part of the list."}
{"test_system": "optoTopBP1 Flp-In 293 T-REx (HEK293) cells", "assay": "light-induced TopBP1 condensate (nuclear foci) count, plate-normalised robust z-score vs non-control wells; higher = more TopBP1 condensates (negative = condensation inhibitor), active = hit call of the paper", "conditions": "10 µM; incubation time 2 h"}
{"smiles": "O=C1OC(c2ccc(O)cc2)(c2ccc(O)cc2)c2ccccc21", "note": "[Phenolphthalein]", "light-induced TopBP1 condensate (z-score)": "inactive: 0.64"}
{"smiles": "CCN(CC)CCCC(C)Nc1ccnc2cc(Cl)ccc12", "note": "(stereo not drawn) [Chloroquine diphosphate]", "light-induced TopBP1 condensate (z-score)": "inactive: -0.187"}
{"smiles": "Nc1ccc(S(=O)(=O)NC(=O)c2ccccc2)cc1", "note": "[Sulfabenzamide]", "light-induced TopBP1 condensate (z-score)": "inactive: 1.06"}
{"smiles": "C=C(CC)C(=O)c1ccc(OCC(=O)O)c(Cl)c1Cl", "note": "[Ethacrynic acid]", "light-induced TopBP1 condensate (z-score)": "inactive: -0.868"}
{"smiles": "C1N2CN3CN1CN(C2)C3", "note": "[Methenamine]", "light-induced TopBP1 condensate (z-score)": "inactive: 0.655"}
{"smiles": "O=C1NCCN1c1ncc([N+](=O)[O-])s1", "note": "[Niridazole]", "light-induced TopBP1 condensate (z-score)": "inactive: 1.15"}
{"smiles": "CCCCCN(C)CCC(O)(P(=O)(O)O)P(=O)(O)O", "note": "[Ibandronate sodium]", "light-induced TopBP1 condensate (z-score)": "inactive: 0.116"}
{"smiles": "CC(C)(C)C(=O)OCOC(=O)[C@@H]1N2C(=O)[C@@H](/N=C/N3CCCCCC3)[C@H]2SC1(C)C", "note": "[Pivmecillinam hydrochloride]", "light-induced TopBP1 condensate (z-score)": "inactive: 0.64"}
{"smiles": "OCC(O)CN1CCN(c2ccccc2)CC1", "note": "(racemic) [Dropropizine (R,S)]", "light-induced TopBP1 condensate (z-score)": "inactive: -1.35"}
{"smiles": "CNc1ncnc2c1ncn2[C@@H]1O[C@H](CO)[C@@H](O)[C@H]1O", "note": "[N6-methyladenosine]", "light-induced TopBP1 condensate (z-score)": "inactive: -0.502"}
{"smiles": "Cc1ncc([N+](=O)[O-])n1C", "note": "[Dimetridazole]", "light-induced TopBP1 condensate (z-score)": "inactive: 0.777"}
{"smiles": "CC(C)OC(=O)C(C(=O)OC(C)C)=C1SC=CS1", "note": "[Malotilate]", "light-induced TopBP1 condensate (z-score)": "inactive: -1.03"}
{"smiles": "C[C@@H](O)[C@H]1C(=O)N2C(C(=O)O)=C(SCCNC=N)C[C@H]12", "note": "[Imipenem]", "light-induced TopBP1 condensate (z-score)": "inactive: 0.639"}
{"smiles": "COc1cccc(CCc2ccccc2OCC(CN(C)C)OC(=O)CCC(=O)O)c1", "note": "(stereo not drawn) [Sarpogrelate hydrochloride]", "light-induced TopBP1 condensate (z-score)": "inactive: 0.789"}
{"smiles": "c1ccc2c(c1)CCCC2C1=NCCN1", "note": "(stereo not drawn) [Tetrahydrozoline hydrochloride]", "light-induced TopBP1 condensate (z-score)": "inactive: 0.856"}
{"smiles": "CC(=O)S[C@@H]1CC2=CC(=O)CC[C@]2(C)[C@H]2CC[C@@]3(C)[C@@H](CC[C@@]34CCC(=O)O4)[C@H]12", "note": "[Spironolactone]", "light-induced TopBP1 condensate (z-score)": "inactive: -0.7"}
{"smiles": "CCCc1cc(C(N)=S)ccn1", "note": "[Prothionamide]", "light-induced TopBP1 condensate (z-score)": "inactive: 0.563"}
{"smiles": "CC(Cc1cccc(C(F)(F)F)c1)NCCOC(=O)c1ccccc1", "note": "(stereo not drawn) [Benfluorex]", "light-induced TopBP1 condensate (z-score)": "inactive: 0.997"}
{"smiles": "C=C1CC[C@H](O)C/C1=C/C=C1\\CCC[C@]2(C)[C@@H]([C@H](C)CCCC(C)C)CC[C@@H]12", "note": "[Cholecalciferol]", "light-induced TopBP1 condensate (z-score)": "inactive: -0.32"}
{"smiles": "NNCCc1ccccc1", "note": "[Phenelzine sulfate]", "light-induced TopBP1 condensate (z-score)": "inactive: -0.188"}
{"smiles": "C[C@H]1O[C@H](O[C@H]2[C@H](O)[C@@H](O)[C@@H](O[C@H]3[C@H](O)[C@@H](O)C(O)O[C@@H]3CO)O[C@@H]2CO)[C@H](O)[C@@H](O)[C@@H]1N[C@H]1C=C(CO)[C@@H](O)[C@H](O)[C@H]1O", "note": "(stereo partly drawn) [Acarbose]", "light-induced TopBP1 condensate (z-score)": "inactive: -1.13"}
{"smiles": "CC(C)(CO)[C@@H](O)C(=O)NCCC(=O)NCCSSCCNC(=O)CCNC(=O)[C@H](O)C(C)(C)CO", "note": "[Pantethine]", "light-induced TopBP1 condensate (z-score)": "inactive: 0.505"}
{"smiles": "CN1CCC(=C2c3ccccc3C=Cc3ccccc32)CC1", "note": "[Cyproheptadine hydrochloride]", "light-induced TopBP1 condensate (z-score)": "inactive: -0.51"}
{"smiles": "CO[C@H]1/C=C/O[C@@]2(C)Oc3c(C)c(O)c4c(O)c(c(/C=N/N5CCN(C6CCCC6)CC5)c(O)c4c3C2=O)NC(=O)/C(C)=C\\C=C\\[C@H](C)[C@H](O)[C@@H](C)[C@@H](O)[C@@H](C)[C@H](OC(C)=O)[C@@H]1C", "note": "[Rifapentine]", "light-induced TopBP1 condensate (z-score)": "inactive: 0.932"}
{"smiles": "CC(C)(C)NC[C@@H](O)COc1cccc2c1CCCC2=O", "note": "[(+) -Levobunolol hydrochloride]", "light-induced TopBP1 condensate (z-score)": "inactive: 0.326"}
{"smiles": "N=C(N)NC(=N)NCCc1ccccc1", "note": "[Phenformin hydrochloride]", "light-induced TopBP1 condensate (z-score)": "inactive: 1.28"}
{"smiles": "NCCc1c[nH]cn1", "note": "[Histamine dihydrochloride]", "light-induced TopBP1 condensate (z-score)": "inactive: -0.965"}
{"smiles": "OC(Cn1cncn1)(Cn1cncn1)c1ccc(F)cc1F", "note": "[Fluconazole]", "light-induced TopBP1 condensate (z-score)": "inactive: 0.635"}
{"smiles": "CCCOc1cc(N)ccc1C(=O)OCCN(CC)CC", "note": "[Propoxycaine hydrochloride]", "light-induced TopBP1 condensate (z-score)": "inactive: 0.623"}
{"smiles": "C[C@@H](NCCCc1cccc(C(F)(F)F)c1)c1cccc2ccccc12", "note": "[Cinacalcet hydrochloride]", "light-induced TopBP1 condensate (z-score)": "inactive: -0.495"}
{"smiles": "CC[N+](C)(C)c1cccc(O)c1", "note": "[Edrophonium chloride]", "light-induced TopBP1 condensate (z-score)": "inactive: -0.419"}
{"smiles": "OCCN1CCN(CC/C=C2/c3ccccc3Sc3ccc(C(F)(F)F)cc32)CC1", "note": "[Flupentixol dihydrochloride cis-(Z)]", "light-induced TopBP1 condensate (z-score)": "inactive: -0.307"}
{"smiles": "Cc1cn[nH]c1", "note": "[Fomepizole]", "light-induced TopBP1 condensate (z-score)": "inactive: -0.606"}
{"smiles": "CC(=O)OCC(=O)[C@@]1(O)CC[C@H]2[C@@H]3CCC4=CC(=O)C=C[C@]4(C)[C@@]3(Cl)[C@@H](Cl)C[C@@]21C", "note": "[Dichlorisone acetate]", "light-induced TopBP1 condensate (z-score)": "inactive: -0.0617"}
{"smiles": "COC(=O)Nc1nc2cc(C(=O)c3cccs3)ccc2[nH]1", "note": "[Nocodazole]", "light-induced TopBP1 condensate (z-score)": "inactive: -1.07"}
{"smiles": "Cc1ccc(C(=O)c2ccc(CC(=O)O)n2C)cc1", "note": "[Tolmetin sodium salt dihydrate]", "light-induced TopBP1 condensate (z-score)": "inactive: -0.453"}
{"smiles": "CCCCN(CCCC)CCCOC(=O)c1ccc(N)cc1", "note": "[Butacaine]", "light-induced TopBP1 condensate (z-score)": "inactive: -0.0392"}
{"smiles": "CC[N+](C)(CC)CCOC(=O)C1c2ccccc2Oc2ccccc21", "note": "[Methantheline bromide]", "light-induced TopBP1 condensate (z-score)": "inactive: 0.691"}
{"smiles": "CC(=O)OCC(=O)[C@@]1(O)CC[C@H]2[C@@H]3CCC4=CC(=O)CC[C@]4(C)[C@@]3(F)[C@@H](O)C[C@@]21C", "note": "[Fludrocortisone acetate]", "light-induced TopBP1 condensate (z-score)": "inactive: 0.185"}
{"smiles": "NS(=O)(=O)c1cc(C2(O)NC(=O)c3ccccc32)ccc1Cl", "note": "(stereo not drawn) [Chlorthalidone]", "light-induced TopBP1 condensate (z-score)": "inactive: 0.367"}
{"smiles": "C=CC(N)CCC(=O)O", "note": "(stereo not drawn) [Vigabatrin hydrochloride]", "light-induced TopBP1 condensate (z-score)": "inactive: -0.0473"}
{"smiles": "CC(=O)OCC(=O)[C@@]1(O)CC[C@H]2[C@@H]3CCC4=CC(=O)CC[C@]4(C)[C@H]3[C@@H](O)C[C@@]21C", "note": "[Cortisol acetate]", "light-induced TopBP1 condensate (z-score)": "inactive: -0.591"}
{"smiles": "CC(C)c1c(C(=O)Nc2ccccc2)c(-c2ccccc2)c(-c2ccc(F)cc2)n1CC[C@@H](O)C[C@@H](O)CC(=O)O", "note": "[Atorvastatin]", "light-induced TopBP1 condensate (z-score)": "inactive: 0.252"}
{"smiles": "Cc1ncc(C[n+]2csc(CCO)c2C)c(N)n1", "note": "[Thiamine hydrochloride]", "light-induced TopBP1 condensate (z-score)": "inactive: 1.37"}
{"smiles": "CCN[C@H]1CN(CCCOC)S(=O)(=O)c2sc(S(N)(=O)=O)cc21", "note": "[Brinzolamide]", "light-induced TopBP1 condensate (z-score)": "inactive: 0.971"}
{"smiles": "CC(=O)Oc1ccccc1C(=O)Nc1ncc([N+](=O)[O-])s1", "note": "[Nitazoxanide]", "light-induced TopBP1 condensate (z-score)": "inactive: -0.561"}
{"smiles": "Oc1cc(O)c2c(c1)O[C@H](c1ccc(O)c(O)c1)[C@@H](O)C2", "note": "[Cianidanol]", "light-induced TopBP1 condensate (z-score)": "inactive: 0.871"}
{"smiles": "CCCCOCCOCCOCc1cc2c(cc1CCC)OCO2", "note": "[Piperonyl butoxide]", "light-induced TopBP1 condensate (z-score)": "inactive: 0.0629"}
{"smiles": "CCN(CC)CCOC(=O)C1(C2CCCCC2)CCCCC1", "note": "[Dicyclomine hydrochloride]", "light-induced TopBP1 condensate (z-score)": "inactive: 0.739"}
{"smiles": "CCCCC(O)c1ccccc1", "note": "(stereo not drawn) [Fenipentol]", "light-induced TopBP1 condensate (z-score)": "inactive: -0.425"}
{"smiles": "CC(N/C(=N\\C#N)Nc1ccncc1)C(C)(C)C", "note": "(stereo not drawn) [Pinacidil]", "light-induced TopBP1 condensate (z-score)": "inactive: -0.688"}
{"smiles": "COc1cc(C(=O)OCCCN2CCCN(CCCOC(=O)c3cc(OC)c(OC)c(OC)c3)CC2)cc(OC)c1OC", "note": "[Dilazep dihydrochloride]", "light-induced TopBP1 condensate (z-score)": "inactive: 0.49"}
{"smiles": "O=C1c2c(O)cccc2Cc2cccc(O)c21", "note": "[Anthralin]", "light-induced TopBP1 condensate (z-score)": "inactive: -0.589"}
{"smiles": "C[C@@H]1C[C@H]2[C@@H]3C[C@H](F)C4=CC(=O)C=C[C@]4(C)[C@@]3(F)[C@@H](O)C[C@]2(C)[C@@]1(O)C(=O)CO", "note": "[Flumethasone]", "light-induced TopBP1 condensate (z-score)": "inactive: 0.794"}
{"smiles": "O=C(O)Cc1ccc(-c2ccccc2)cc1", "note": "[Felbinac]", "light-induced TopBP1 condensate (z-score)": "inactive: -0.83"}
{"smiles": "O=C(O)c1cn(-c2ccc(F)cc2)c2cc(N3CCNCC3)c(F)cc2c1=O", "note": "[Sarafloxacin]", "light-induced TopBP1 condensate (z-score)": "inactive: 0.514"}
{"smiles": "C[N+]1(C)CCC(OC(=O)C(O)(c2ccccc2)C2CCCC2)C1", "note": "(stereo not drawn) [Glycopyrrolate]", "light-induced TopBP1 condensate (z-score)": "inactive: 0.0941"}
{"smiles": "Clc1ccc(CCC(Cn2ccnc2)Sc2c(Cl)cccc2Cl)cc1", "note": "(stereo not drawn) [Butoconazole nitrate]", "light-induced TopBP1 condensate (z-score)": "inactive: -0.455"}
{"smiles": "N#Cc1ccc(C(c2ccc(C#N)cc2)n2cncn2)cc1", "note": "[Letrozole]", "light-induced TopBP1 condensate (z-score)": "inactive: 0.389"}
{"smiles": "NCc1ccccc1CC(=O)N[C@@H]1C(=O)N2C(C(=O)O)=C(CSc3nnnn3CC(=O)O)CS[C@H]12", "note": "[Ceforanide]", "light-induced TopBP1 condensate (z-score)": "inactive: 0.483"}
{"smiles": "N=C(NCCCCCCNC(=N)NC(=N)Nc1ccc(Cl)cc1)NC(=N)Nc1ccc(Cl)cc1", "note": "[Chlorhexidine]", "light-induced TopBP1 condensate (z-score)": "inactive: 0.68"}
{"smiles": "CN1CCN(C2=Nc3ccccc3Oc3ccc(Cl)cc32)CC1", "note": "[Loxapine succinate]", "light-induced TopBP1 condensate (z-score)": "inactive: -0.0703"}
{"smiles": "C#C[C@]1(O)CC[C@H]2[C@@H]3[C@H](C)CC4=C(CCC(=O)C4)[C@H]3CC[C@@]21C", "note": "[Tibolone]", "light-induced TopBP1 condensate (z-score)": "inactive: -0.176"}
{"smiles": "O=C(O)COc1nn(Cc2ccccc2)c2ccccc12", "note": "[Bendazac]", "light-induced TopBP1 condensate (z-score)": "inactive: -0.242"}
{"smiles": "CC(=O)OCC(=O)[C@@]1(O)CC[C@H]2[C@@H]3CCC4=CC(=O)C=C[C@]4(C)[C@@]3(F)[C@@H](O)C[C@@]21C", "note": "[Isoflupredone acetate]", "light-induced TopBP1 condensate (z-score)": "inactive: 0.491"}
{"smiles": "COc1cc(C(=O)N2CCOCC2)cc(OC)c1OC", "note": "[Trimetozine]", "light-induced TopBP1 condensate (z-score)": "inactive: 0.804"}
{"smiles": "CN(C)CCCOc1nn(Cc2ccccc2)c2ccccc12", "note": "[Benzydamine hydrochloride]", "light-induced TopBP1 condensate (z-score)": "inactive: -0.931"}
{"smiles": "Cc1cc2nc3ccc(N(C)C)cc3[s+]c2cc1N", "note": "[Tolonium chloride]", "light-induced TopBP1 condensate (z-score)": "active: -9.72"}
